# Data from the BET-seq Pho4 binding data (Le et al. 2018).
# The other results are listed elsewhere or left out. These are noisy estimates, calculated here from bound and input reads.
# Molecular target: T1, Pho4 (S. cerevisiae) (UniProt P07270)
# T1 sequence: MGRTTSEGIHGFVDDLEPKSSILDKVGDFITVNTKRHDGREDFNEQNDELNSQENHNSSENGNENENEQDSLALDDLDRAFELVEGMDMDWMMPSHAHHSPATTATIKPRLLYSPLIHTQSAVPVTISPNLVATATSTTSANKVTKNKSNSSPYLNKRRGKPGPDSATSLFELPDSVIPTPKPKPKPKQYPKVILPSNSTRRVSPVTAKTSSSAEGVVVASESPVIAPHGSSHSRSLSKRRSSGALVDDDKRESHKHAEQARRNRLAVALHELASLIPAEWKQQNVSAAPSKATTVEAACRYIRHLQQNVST
# Assay: relative binding free energy (BET-seq); higher = weaker binding
# Settings: reference: library average
row,Sequence,relative binding free energy
1,GGGATCACGTGTGGGC,0.2 kcal/mol
2,TTCAACACGTGGGTTA,-0.18 kcal/mol
3,GGAGTCACGTGTATCG,0.22 kcal/mol
4,TATATCACGTGCGTGT,-0.02 kcal/mol
5,GGTAGCACGTGTTTAC,0 kcal/mol
6,TGAGTCACGTGAAGTA,0.4 kcal/mol
7,TCAAGCACGTGCGGGG,-0.25 kcal/mol
8,TTTAACACGTGTAAAG,0.06 kcal/mol
9,GGTAGCACGTGATGGC,0.11 kcal/mol
10,GAGAACACGTGTGGTT,0.23 kcal/mol
11,GGGGGCACGTGTAGCA,-0.1 kcal/mol
12,GGGGACACGTGACTGT,0.05 kcal/mol
13,AGATGCACGTGGAAGG,0.08 kcal/mol
14,AGTATCACGTGCAGTT,0.08 kcal/mol
15,TAAAGCACGTGGGCTT,-0.2 kcal/mol
16,GCGGGCACGTGCGGGG,-0.25 kcal/mol
17,CGTTGCACGTGTAGTG,0.06 kcal/mol
18,AGTTACACGTGACGGT,0.18 kcal/mol
19,TTATACACGTGGGAAG,-0.16 kcal/mol
20,TCTGTCACGTGTGTAA,0.07 kcal/mol
21,TAGAGCACGTGGCTGG,-0.18 kcal/mol
22,CGTATCACGTGTGAAG,0.23 kcal/mol
23,CTGAGCACGTGTTTAG,-0.01 kcal/mol

row,Sequence,relative binding free energy
1,TGTCACACGTGGGGAT,-0.19 kcal/mol
2,TTCGGCACGTGGTTGG,0 kcal/mol
3,AGTGGCACGTGGACAG,-0.19 kcal/mol
4,AGCGTCACGTGGTGGC,0.02 kcal/mol
5,TTAGACACGTGCAAGG,0.06 kcal/mol
6,AAGGACACGTGTGTTC,0.18 kcal/mol
7,TTTTTCACGTGGCGCA,0.42 kcal/mol
8,GGTAACACGTGTAGCT,0.22 kcal/mol
9,TGTTGCACGTGCAGTG,0.04 kcal/mol
10,CGGGACACGTGGTGCG,0 kcal/mol
11,TGTGCCACGTGTCGGC,0.02 kcal/mol
12,TAGATCACGTGGGTGA,-0.07 kcal/mol
13,GGCATCACGTGTTTGT,0.16 kcal/mol
14,CTTGTCACGTGGTGTG,0.01 kcal/mol
15,GGGTCCACGTGTATTG,0.04 kcal/mol
16,CTAGTCACGTGAATTT,0.32 kcal/mol
17,TTGCTCACGTGTTAGG,0.22 kcal/mol
18,GGGAACACGTGGGTAA,0.04 kcal/mol
19,GGTTCCACGTGATGGG,0.29 kcal/mol
20,GAAGGCACGTGGTTAT,-0.08 kcal/mol
21,GTTGGCACGTGTTAAG,0.02 kcal/mol
22,TAATACACGTGCGTGG,-0.04 kcal/mol
23,TTTGACACGTGGCGGA,-0.07 kcal/mol

row,Sequence,relative binding free energy
1,GGCTGCACGTGGCGGG,-0.07 kcal/mol
2,TGTATCACGTGTGGGC,0.16 kcal/mol
3,AGAAACACGTGGTGTG,-0.08 kcal/mol
4,CATAGCACGTGTTGGT,0.08 kcal/mol
5,ATTCTCACGTGATGGA,0.24 kcal/mol
6,AGGTTCACGTGGGTTC,0.17 kcal/mol
7,GTTTTCACGTGGGCGC,0.33 kcal/mol
8,GCTTGCACGTGAGTGG,0.15 kcal/mol
9,GGCGACACGTGAGTTG,0.35 kcal/mol
10,AGGGGCACGTGTCTGT,-0.16 kcal/mol
11,AAATTCACGTGGCGGT,0.19 kcal/mol
12,GCCGGCACGTGGGGAG,-0.15 kcal/mol
13,TATGACACGTGCAGGG,-0.05 kcal/mol
14,ATGTGCACGTGAGGAC,0.11 kcal/mol
15,GGTCACACGTGTGAGT,0.22 kcal/mol
16,GCTGGCACGTGAGATG,0.17 kcal/mol
17,GGTGCCACGTGCGGTT,-0.19 kcal/mol
18,CAAATCACGTGTGGTA,0.27 kcal/mol
19,AGGGTCACGTGTCTGT,0.11 kcal/mol
20,GAGGGCACGTGTTCTT,0.06 kcal/mol
21,TTCTTCACGTGTCATG,0.22 kcal/mol
22,TGGGGCACGTGGTGAG,-0.13 kcal/mol
23,AGGTGCACGTGGGGTA,-0.19 kcal/mol

row,Sequence,relative binding free energy
1,AGTAGCACGTGAGGGC,0.08 kcal/mol
2,TTTCGCACGTGTTATT,0.08 kcal/mol
3,ATTAACACGTGGGGGG,-0.09 kcal/mol
4,CTTGTCACGTGGAGTT,0.04 kcal/mol
5,ATATGCACGTGCTTGT,-0.15 kcal/mol
6,GGAGGCACGTGTTGAG,0.05 kcal/mol
7,TGTATCACGTGTAACT,0.21 kcal/mol
8,GGAAGCACGTGGTTTA,0 kcal/mol
9,TTTCTCACGTGTGTAG,0.27 kcal/mol
10,GATTTCACGTGGTGGA,0.29 kcal/mol
11,CTTTACACGTGAAGTT,0.43 kcal/mol
12,AATTACACGTGGTCGG,-0.04 kcal/mol
13,GGGTACACGTGAATGC,0.31 kcal/mol
14,CTGGTCACGTGGGACT,0.06 kcal/mol
15,TTATTCACGTGCTCTT,0.22 kcal/mol
16,CTTTTCACGTGTTCAT,0.25 kcal/mol
17,GTTGACACGTGGATGT,0.13 kcal/mol
18,AATGGCACGTGTGAGT,0.03 kcal/mol
19,CAATGCACGTGGAGGG,-0.16 kcal/mol
20,GAATTCACGTGGGATG,0.21 kcal/mol
21,TTGGCCACGTGGTCTG,-0.03 kcal/mol
22,GTTACCACGTGGTTGG,-0.08 kcal/mol
23,AGGGTCACGTGGTCGG,0.06 kcal/mol

row,Sequence,relative binding free energy
1,TGATGCACGTGAGGTC,0.24 kcal/mol
2,GCGTACACGTGGGTAG,-0.16 kcal/mol
3,CGGTGCACGTGAATGT,0.23 kcal/mol
4,TAAGGCACGTGGGCAG,-0.35 kcal/mol
5,GAAATCACGTGTTTTA,0.27 kcal/mol
6,CGAGTCACGTGGTTGC,0.1 kcal/mol
7,GGAGCCACGTGCTGGT,-0.05 kcal/mol
8,TCGGTCACGTGATAGG,0.16 kcal/mol
9,AAGCGCACGTGAGGTG,0.09 kcal/mol
10,AAGTACACGTGTGTTT,0.28 kcal/mol
11,AGAATCACGTGTTATG,0.26 kcal/mol
12,TTGAGCACGTGGGTCT,-0.27 kcal/mol
13,ATTCTCACGTGTTGGT,0.27 kcal/mol
14,ACTGTCACGTGGGGTG,-0.11 kcal/mol
15,AATGTCACGTGGTTTA,0.02 kcal/mol
16,AGGTTCACGTGCCTGG,0.26 kcal/mol
17,TTCTACACGTGTATAT,0.1 kcal/mol
18,TTTTGCACGTGTATCT,0.13 kcal/mol
19,GGTTGCACGTGAAGGC,0.33 kcal/mol
20,GGTGCCACGTGCAGGT,-0.16 kcal/mol
21,TTAGTCACGTGATACT,0.14 kcal/mol
22,GTCATCACGTGAAGGG,0.39 kcal/mol
23,TTTTACACGTGTTTCA,0.19 kcal/mol
